Test results published in the supplement of paper PMC6531468.
The other results are listed elsewhere or left out. Read counts after selection give these values, which scatter widely. Each score is taken over the longer molecules that contain the sequence shown.

Tested on: IMP3 RRM1-2
Test: 6-mer SELEX enrichment z-score vs GST control; IMP3 is the RNA-binding protein IGF2BP3; higher = more enriched by binding
Details: construct: RRM1-2 (1-163); SELEX round: R2
Description: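 SELEX-seq with GST-tagged IMP3 RRM1-2 (Met1-Asn163) and an N40 RNA pool, round 2. 6-mer enrichment z-score normalised to GST SELEX. RNA written as DNA (T = U).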

IMP3 RRM1-2, sequence (chain, as listed by the source): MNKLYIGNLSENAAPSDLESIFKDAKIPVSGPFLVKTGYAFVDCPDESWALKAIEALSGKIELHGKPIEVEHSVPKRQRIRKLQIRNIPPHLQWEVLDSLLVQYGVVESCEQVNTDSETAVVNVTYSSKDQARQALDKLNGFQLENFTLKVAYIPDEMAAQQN

Sequence | 6-mer SELEX enrichment z-score
ACATGA | 0.748
TGCATT | 0.563
AATAGA | -1.04
TCTTAC | 0.325
TTGTGT | 0.408
GAGGAA | -1.01
CAGGGT | 0.325
AATCGA | -0.918
ACTCAG | 0.617
CGGGTA | 0.103
AGACCT | -1.02
GGATAG | -0.073
TTGTTA | 0.34
CAGGGA | 0.087
CTTGTC | 0.333
GCGCTG | 0.064
TATGGT | 0.393
TTAGCC | -0.133
CTCTCC | 0.069
ATCACC | 1.27

Sequence | 6-mer SELEX enrichment z-score
TGATAT | -0.107
ACTACG | -0.338
TGGTCA | 0.318
TCGTGC | 0.307
TTATCC | -0.024
GTTCAA | 0.357
TCGTAT | 0.286
TGTCCG | -0.179
CAATAA | -0.01
GTGCGT | 0.381
GTGGTC | 0.364
GTTAGC | 0.219
AGGAAA | -1.36
GCCGAT | -0.513
CCCATT | 0.067
AAAACG | -2.76
TAAGCC | -0.565
ATCGAC | -0.148
CCGGAA | -1.31
TTACGA | -0.424

Target: IMP3 full-length (UniProt O00425)
Test: as above
Details: construct: FL IMP3 (1-579); SELEX round: R4
Description: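 SELEX-seq with GST-tagged full-length IMP3 and an N40 RNA pool, round 4. Each 6-mer is scored as an enrichment z-score of sequence tags containing it, normalised to the matching GST SELEX round. RNA written as DNA (T = U).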

UniProt O00425, sequence (O00425 whole entry): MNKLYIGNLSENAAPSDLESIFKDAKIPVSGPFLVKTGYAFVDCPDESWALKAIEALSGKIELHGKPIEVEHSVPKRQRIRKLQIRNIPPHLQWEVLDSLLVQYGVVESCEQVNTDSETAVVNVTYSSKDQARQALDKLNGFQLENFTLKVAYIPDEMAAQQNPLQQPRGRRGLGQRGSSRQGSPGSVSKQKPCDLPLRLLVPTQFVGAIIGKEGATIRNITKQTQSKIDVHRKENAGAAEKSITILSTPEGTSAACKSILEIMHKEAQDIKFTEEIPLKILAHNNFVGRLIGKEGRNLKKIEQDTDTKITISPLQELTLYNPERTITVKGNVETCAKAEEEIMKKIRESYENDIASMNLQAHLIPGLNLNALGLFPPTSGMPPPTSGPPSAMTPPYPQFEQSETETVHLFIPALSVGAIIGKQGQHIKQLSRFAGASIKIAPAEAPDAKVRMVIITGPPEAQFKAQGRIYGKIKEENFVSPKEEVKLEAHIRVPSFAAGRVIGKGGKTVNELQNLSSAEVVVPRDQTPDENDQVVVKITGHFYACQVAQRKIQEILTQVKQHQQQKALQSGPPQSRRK

Sequence | 6-mer SELEX enrichment z-score
ACATGA | 1.34
TGCATT | 0.452
AATAGA | -0.081
TCTTAC | 0.076
TTGTGT | -0.051
GAGGAA | -0.198
CAGGGT | 0.565
AATCGA | -1.33
ACTCAG | -0.077
CGGGTA | 0.073
AGACCT | -1.15
GGATAG | 0.154
TTGTTA | -0.011
CAGGGA | 0.409
CTTGTC | 0.119
GCGCTG | 0.006
TATGGT | 0.205
TTAGCC | -0.269
CTCTCC | -0.249
ATCACC | 0.82

Sequence | 6-mer SELEX enrichment z-score
TGATAT | 0.045
ACTACG | -0.199
TGGTCA | 0.326
TCGTGC | -0.105
TTATCC | -0.453
GTTCAA | 0.25
TCGTAT | -0.124
TGTCCG | 0.12
CAATAA | 0.82
GTGCGT | -0.463
GTGGTC | 0.184
GTTAGC | 0.039
AGGAAA | -0.583
GCCGAT | -0.086
CCCATT | 0.029
AAAACG | -2.93
TAAGCC | -0.644
ATCGAC | -0.251
CCGGAA | -0.657
TTACGA | -0.515

Tested on: IMP3 KH1-2
Test: as above
Details: construct: KH1-2 (164-376); SELEX round: R4
Description: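 SELEX-seq with GST-tagged IMP3 KH1-2 (Pro164-Phe376) and an N40 RNA pool, round 4 (stringent 300/600 mM KCl washes). 6-mer z-score of sequence-tag enrichment normalised to the corresponding GST SELEX round; RNA k-mers written as DNA (T for U).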

IMP3 KH1-2, sequence (chain, as listed by the source): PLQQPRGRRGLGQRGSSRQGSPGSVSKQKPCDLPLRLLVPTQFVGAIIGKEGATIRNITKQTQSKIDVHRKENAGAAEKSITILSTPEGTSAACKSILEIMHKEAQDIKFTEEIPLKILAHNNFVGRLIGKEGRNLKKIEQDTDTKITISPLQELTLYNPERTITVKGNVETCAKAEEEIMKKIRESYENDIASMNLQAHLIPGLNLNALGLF

Sequence | 6-mer SELEX enrichment z-score
ACATGA | 1.61
TGCATT | 0.34
AATAGA | 1.38
TCTTAC | 0.214
TTGTGT | 0.064
GAGGAA | 0.551
CAGGGT | 0.199
AATCGA | -1.8
ACTCAG | -0.816
CGGGTA | -0.237
AGACCT | -0.909
GGATAG | 0.593
TTGTTA | 0.198
CAGGGA | 0.778
CTTGTC | -0.153
GCGCTG | -0.236
TATGGT | 0.287
TTAGCC | -0.007
CTCTCC | 0.14
ATCACC | 0.412

Sequence | 6-mer SELEX enrichment z-score
TGATAT | 0.918
ACTACG | 0.198
TGGTCA | 0.117
TCGTGC | -0.579
TTATCC | -0.127
GTTCAA | -0.002
TCGTAT | -0.112
TGTCCG | -0.155
CAATAA | 2.32
GTGCGT | -0.919
GTGGTC | -0.077
GTTAGC | -0.044
AGGAAA | 0.304
GCCGAT | -0.306
CCCATT | 0.176
AAAACG | -2.29
TAAGCC | -0.35
ATCGAC | -1.18
CCGGAA | -0.461
TTACGA | -0.05

Tested on: IMP3 KH3-4
Test: as above
Details: construct: KH3-4 (377-579); SELEX round: R4
Description: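 SELEX-seq with GST-tagged IMP3 KH3-4 (Pro377-Lys579) and an N40 RNA pool, round 4. 6-mer z-score of sequence-tag enrichment normalised to the corresponding GST SELEX round; RNA k-mers written as DNA (T for U).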

IMP3 KH3-4, sequence (chain, as listed by the source): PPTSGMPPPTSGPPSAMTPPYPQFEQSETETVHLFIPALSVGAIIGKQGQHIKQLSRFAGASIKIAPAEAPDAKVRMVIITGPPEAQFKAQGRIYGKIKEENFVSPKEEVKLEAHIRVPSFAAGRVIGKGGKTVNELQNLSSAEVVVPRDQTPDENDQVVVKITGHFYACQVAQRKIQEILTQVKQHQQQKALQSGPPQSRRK

Sequence | 6-mer SELEX enrichment z-score
ACATGA | 2.02
TGCATT | 0.422
AATAGA | 2.28
TCTTAC | 0.089
TTGTGT | 0.262
GAGGAA | 0.825
CAGGGT | 0.257
AATCGA | -1.54
ACTCAG | -0.901
CGGGTA | -0.029
AGACCT | -1.04
GGATAG | 0.879
TTGTTA | 0.41
CAGGGA | 0.651
CTTGTC | -0.157
GCGCTG | -0.266
TATGGT | 0.48
TTAGCC | -0.09
CTCTCC | -0.409
ATCACC | -0.485

Sequence | 6-mer SELEX enrichment z-score
TGATAT | 1.55
ACTACG | 0.063
TGGTCA | 0.164
TCGTGC | -0.498
TTATCC | -0.286
GTTCAA | 0.032
TCGTAT | 0.011
TGTCCG | -0.299
CAATAA | 2.09
GTGCGT | -0.772
GTGGTC | 0.03
GTTAGC | -0.023
AGGAAA | 1.16
GCCGAT | -0.283
CCCATT | -0.357
AAAACG | -1.63
TAAGCC | -0.434
ATCGAC | -1.24
CCGGAA | -0.56
TTACGA | 0.107
